Among all 310,000 compounds or so, about 2,200 (0.71%) showed an effect of 50% or more. Effects have a minus sign here. The list shows a part of the results.

This assay deals with human ether-à-go-go-related gene (hERG) potassium channel (human, UniProt Q12809). The experiment in a line: primary screen, population patch clamp on CHO cells stably expressing hERG.
Sequence of human ether-à-go-go-related gene (hERG) potassium channel (Q12809 whole entry, looked up): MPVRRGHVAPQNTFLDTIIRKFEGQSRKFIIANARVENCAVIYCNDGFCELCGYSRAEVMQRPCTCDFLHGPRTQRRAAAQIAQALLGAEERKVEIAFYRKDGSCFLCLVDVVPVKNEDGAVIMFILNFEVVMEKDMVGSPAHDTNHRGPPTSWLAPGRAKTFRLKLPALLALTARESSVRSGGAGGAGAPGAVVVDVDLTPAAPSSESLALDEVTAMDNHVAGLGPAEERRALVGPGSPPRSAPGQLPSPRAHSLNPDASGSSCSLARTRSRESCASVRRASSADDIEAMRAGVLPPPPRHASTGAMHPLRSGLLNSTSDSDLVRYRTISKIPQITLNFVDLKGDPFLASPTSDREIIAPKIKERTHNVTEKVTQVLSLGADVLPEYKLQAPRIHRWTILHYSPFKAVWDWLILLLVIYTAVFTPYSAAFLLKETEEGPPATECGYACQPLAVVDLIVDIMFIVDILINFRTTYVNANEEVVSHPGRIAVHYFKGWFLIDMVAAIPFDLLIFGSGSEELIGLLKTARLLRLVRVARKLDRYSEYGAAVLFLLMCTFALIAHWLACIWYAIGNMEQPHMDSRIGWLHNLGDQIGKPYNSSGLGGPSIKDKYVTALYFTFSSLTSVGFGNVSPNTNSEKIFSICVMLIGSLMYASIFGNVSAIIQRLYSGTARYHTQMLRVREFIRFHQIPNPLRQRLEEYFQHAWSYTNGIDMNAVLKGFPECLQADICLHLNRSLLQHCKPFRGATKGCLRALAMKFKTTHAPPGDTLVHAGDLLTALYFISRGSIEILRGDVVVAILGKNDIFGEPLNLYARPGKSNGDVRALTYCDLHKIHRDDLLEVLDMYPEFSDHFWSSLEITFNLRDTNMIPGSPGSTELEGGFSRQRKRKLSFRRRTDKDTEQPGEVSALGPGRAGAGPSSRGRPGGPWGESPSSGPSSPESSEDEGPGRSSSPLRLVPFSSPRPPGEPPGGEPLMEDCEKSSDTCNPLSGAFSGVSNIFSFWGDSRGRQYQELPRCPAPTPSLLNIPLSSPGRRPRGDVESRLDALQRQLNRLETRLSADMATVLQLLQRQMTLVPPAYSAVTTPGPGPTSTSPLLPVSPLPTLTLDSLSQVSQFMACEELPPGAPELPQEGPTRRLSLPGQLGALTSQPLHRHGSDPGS
On to `OCCN1CCN(Cc2cccc(Oc3ccc(Cl)cc3)c2)CC1`, for which the “hERG current change (%, negative = inhibition) at 1uM” value was 1.11%.
Next, `CCN(CC)Cc1c(C(=O)N/N=C/c2cccc(OCc3ccc(F)cc3)c2)nnn1-c1nonc1N`: 13.4%; `CN(C(=O)COC(=O)CNC(=O)c1ccccc1Cl)c1ccccc1`: 15.6%.
On to `O=C(O)COCC(=O)Nc1ccc(OCCc2ccccc2)cc1`, for which the “hERG current change (%, negative = inhibition) at 1uM” value was found to be 11.9%.
On to `Cc1ccc(-n2c(-c3ccncc3)nnc2-c2cccs2)cc1`, for which the “hERG current change (%, negative = inhibition) at 1uM” value is recorded as 7.39%.
As for `CCN(Cc1ccccc1)C(=O)c1ccc(C(=O)N(CC)Cc2ccccc2)cc1`, the “hERG current change (%, negative = inhibition) at 1uM” value is on record as 8.17%.
As for `OCCCNc1nccc(-c2cc(Nc3cccc(Cl)c3)ncn2)n1`, the “hERG current change (%, negative = inhibition) at 1uM” value was 12.8%.
Take `COC(=O)CC1C(=O)NC(C)=C1C(=O)OC` (stereo not drawn): the “hERG current change (%, negative = inhibition) at 1uM” value stood at 14.5%.
Turning to `O=C(CSc1nnc(-c2cccs2)o1)c1cccs1`, the “hERG current change (%, negative = inhibition) at 1uM” value is listed as 8.45%.
On to `CCN(CC(=O)Nc1c(F)cccc1F)C(=O)c1cccc(S(=O)(=O)N2CCc3ccccc3C2)c1`, for which the “hERG current change (%, negative = inhibition) at 1uM” value was -4.43%.
Take `CCOc1ccc(C(=O)N2CCC(C(=O)c3ccc4c(c3)OCCO4)CC2)cc1`: the “hERG current change (%, negative = inhibition) at 1uM” value is on record as -61.5%.
Regarding `O=C(Nc1ccc(S(=O)(=O)N2CCCC2)cc1)N1c2ccccc2Sc2ccccc21`, the “hERG current change (%, negative = inhibition) at 1uM” value turned out to be 30.8%.
In the case of `N#Cc1c2c(c(NCc3ccco3)n3c1nc1ccccc13)CCC2`, the “hERG current change (%, negative = inhibition) at 1uM” value came out at 6.2%.
In the case of `CCOC(=O)C1CCCN(S(=O)(=O)c2cc(Br)cc3c2N(C(=O)C2CC2)CC3)C1` (stereo not drawn), the “hERG current change (%, negative = inhibition) at 1uM” value is reported as 20.6%.
On to `Cc1nn(CC(C)C)c(Cl)c1C(=O)O`, for which the “hERG current change (%, negative = inhibition) at 1uM” value was determined as 5.82%.
In the case of `CC(=O)c1ccc(C(=O)NC2CCCN(Cc3ccccc3F)C2)cc1` (stereo not drawn) it was 21%.
On to `O=C(CSc1ccccc1)NCC1(N2CCCCC2)CCCCC1`, for which the “hERG current change (%, negative = inhibition) at 1uM” value is on record as 17%.
Take `O=C(NCc1ccccn1)Nc1ccccc1C(F)(F)F`: the “hERG current change (%, negative = inhibition) at 1uM” value came out at 13%.
In the case of `Cc1cccc(N2CN=C3SCC(=O)N3C2)c1`, the “hERG current change (%, negative = inhibition) at 1uM” value was 12.8%.
Next, `O=C1Nc2ccccc2OC1CC(=O)N1CCCC1` (stereo not drawn): 1.85%; `O=c1[nH]c(=O)c2cc([N+](=O)[O-])cc([N+](=O)[O-])c2[nH]1`: 11.1%; `CN(C)c1ccc(/C=N/NC(=O)c2cc(=O)[nH]c3ccccc23)cc1`: 12.4%.
As to `CN(CCc1ccccn1)C(=O)CCC1CCCN(C(=O)c2cscn2)C1` (stereo not drawn), the “hERG current change (%, negative = inhibition) at 1uM” value is 2.11%.
On to `CCN(Cc1ccccc1)C(=O)CN1C(=O)NC2(CC(C)CC(C)(C)C2)C1=O` (stereo not drawn), for which the “hERG current change (%, negative = inhibition) at 1uM” value came out at 2.29%.
Next, `COc1ccccc1OCC(=O)Nc1sc2c(c1C(=O)NCC1CCCO1)CCC2` (stereo not drawn): 13.6%; `Cc1nn(C)c(C)c1NC(=O)/C(C#N)=C\N(C)C`: -0.397%.
For `CN1CCN(CCCNc2c(C=O)c(=O)[nH]c3ccccc23)CC1`, the “hERG current change (%, negative = inhibition) at 1uM” value is reported as 16.7%.
For the compound `Cc1ccc2nc3c(cc(C(=O)NCc4ccco4)c(=N)n3Cc3ccco3)c(=O)n2c1`, the “hERG current change (%, negative = inhibition) at 1uM” value was -86.5%.
Turning to `CN(C)/C=C1\C(=O)N(c2ccc(F)cc2F)C(c2cccnc2)S1(=O)=O` (stereo not drawn), the “hERG current change (%, negative = inhibition) at 1uM” value came out at 11.2%.
On to `Cn1c(C(=O)N2CCCC(C(=O)O)C2)cc2sccc21` (stereo not drawn), for which the “hERG current change (%, negative = inhibition) at 1uM” value was found to be 15.5%.
Next, `C=CCN1C(=O)/C(=C2/Sc3ccc(OC)cc3N2C)SC1=Nc1cccc(O)c1`: 17.3%; `COc1ccc(-c2nc3cccc(C)n3c2NCc2ccco2)cc1OC`: 5.43%; `Cc1ccc2c(c1)-c1c(cnn1CC(=O)O)CO2`: 17.2%.
Take `Cc1cccc(C)c1-n1c(C)nn(-c2ncc(C(F)(F)F)cc2Cl)c1=O`: the “hERG current change (%, negative = inhibition) at 1uM” value is recorded as 1.95%.
Next, `Cc1ccc(-c2nnn(CC(=O)N(Cc3ccco3)C(C(=O)NC(C)(C)C)c3ccc(C)o3)n2)o1` (stereo not drawn): 19%; `CCOc1cc(CN2CCCC(N3CCN(c4ccc(F)cc4)CC3)C2)ccc1OC` (stereo not drawn): -6.32%.
In the case of `CCNc1c2c3c(cccc3n(C)c1=O)C(=O)c1ccccc1-2`, the “hERG current change (%, negative = inhibition) at 1uM” value was 7.38%.
Next, `Cc1cccc(C(=O)O/N=C2\CCSc3ccc(C)cc32)c1`: 9.95%.
On to `CCOCCCNCc1cc(Cl)ccc1OCC.Cl`, for which the “hERG current change (%, negative = inhibition) at 1uM” value turned out to be 0.597%.
For the compound `COC(=O)c1ccc(COC(=O)CNC(=O)c2ccc(C)s2)cc1`, the “hERG current change (%, negative = inhibition) at 1uM” value turned out to be 11.4%.
In the case of `O=C(Nc1ccc([N+](=O)[O-])cn1)c1ccc(Br)o1` it was 13.3%; in that of `O=C(Nc1ncccn1)C1c2ccccc2Oc2ccccc21`, -4.98%; in that of `COc1ccc(OCC(=O)NNC(=O)Cc2coc3cc(OC)ccc23)cc1`, 10.9%.
For the compound `CCOC(=O)c1c(/N=C/c2ccc(C)cc2O)sc2c1CCN(C)C2`, the “hERG current change (%, negative = inhibition) at 1uM” value is 2.32%.
In the case of `C(=NC12CN3CN(CN(C3)C1)C2)c1ccc2c(c1)OCO2` it was -1.22%.
On to `CCC(=O)N1CCc2cc(S(=O)(=O)CCC(=O)Nc3cccc(F)c3)ccc21`, for which the “hERG current change (%, negative = inhibition) at 1uM” value worked out at 11%.
As to `CN(c1ccccc1)S(=O)(=O)c1ccc(NC(=S)Nc2ccccc2)cc1`, the “hERG current change (%, negative = inhibition) at 1uM” value is on record as -6.83%.
In the case of `CCOC(=O)c1c(C)[nH]c(O)c1C=Nc1ccc(C(F)(F)F)cc1` it was 14.2%; in that of `O=C(COc1cccnc1[N+](=O)[O-])NCc1ccccc1`, 8.88%; in that of `CCCCN(c1ccccc1)S(=O)(=O)c1ccc2c(c1)CCN2C(=O)CCC(=O)O`, 14.7%.
Turning to `COc1ccc(/C=C(\CC(=O)O)c2nc3ccccc3o2)cc1`, the “hERG current change (%, negative = inhibition) at 1uM” value is recorded as 13.6%.
Regarding `COc1ccc(OC)c2c1sc(=NC(=O)c1ccco1)n2C`, the “hERG current change (%, negative = inhibition) at 1uM” value was found to be 13.1%.
Next, `CC(NC(=O)c1ccccc1)c1nc2ccccc2n1Cc1ccc(C#N)cc1` (stereo not drawn): -35.6%; `C=CCNC(=O)CCCC(=O)NCC=C`: 12.4%; `COc1ccc2nc(SCC(=O)NC(C)c3ccccc3)[nH]c2c1` (stereo not drawn): 7.92%.
Next, `NC(=O)c1c(/N=C/c2cccnc2)sc2c1CCCC2`: 6.74%; `COc1ccc(C2NC(=O)NC(C)=C2[N+](=O)[O-])cc1` (stereo not drawn): 6.23%.
Take `COc1ccc(-c2cc(-c3ccccc3)c(C#N)c(=S)[nH]2)cc1`: the “hERG current change (%, negative = inhibition) at 1uM” value is 9.89%.
Turning to `COc1ccc(/C=C2/SC(=O)N(CCC(=O)Nc3ccccc3)C2=O)cc1OC`, the “hERG current change (%, negative = inhibition) at 1uM” value was 5.2%.
`CC1(C)CC(=O)C(C=NCCCN2CCOCC2)=C(O)C1`: the “hERG current change (%, negative = inhibition) at 1uM” value was determined as 11%.
As for `O=C1NC(=O)/C(=C\c2ccc(OCc3ccccc3)cc2)S1`, the “hERG current change (%, negative = inhibition) at 1uM” value worked out at 5.62%.
Turning to `Cl.O.O=c1c2ccccc2nc2n1CC/C2=C/N1CCN(c2cccc(C(F)(F)F)c2)CC1`, the “hERG current change (%, negative = inhibition) at 1uM” value is reported as 5.54%.
As for `COc1ccc(C(=O)N(C)Cc2nc3ccccc3c(=O)[nH]2)cc1S(=O)(=O)N1CCCC1`, the “hERG current change (%, negative = inhibition) at 1uM” value amounted to 14.7%.
Regarding `COc1cccc(NC(=O)CCNC(=O)N2CC(=O)Nc3ccccc32)c1`, the “hERG current change (%, negative = inhibition) at 1uM” value is recorded as 13.8%.
Next, `CNc1nc2ccccc2n1N`: 10.8%; `Clc1cccc(-c2cc3nc4c(c(N5CCN(c6cnccn6)CC5)n3n2)CCCC4)c1`: 3.59%.
Next, `COC(=O)c1ccccc1-c1ccc(C=O)o1`: 20.5%; `CCn1c(SCC(N)=O)nc2cc(S(=O)(=O)N3CCOCC3)ccc21`: -3.71%.
Turning to `CCc1nnc(NC(=O)c2ccc(Cl)nc2)s1`, the “hERG current change (%, negative = inhibition) at 1uM” value came to 12.5%.
For the compound `[O-][Cl+3]([O-])([O-])[O-].c1ccc(-c2cc(-c3ccccc3)[n+](-c3ccccc3)c(-c3ccccc3)c2)cc1`, the “hERG current change (%, negative = inhibition) at 1uM” value is -27.7%.
Regarding `O=C(O)c1ccc(CSCc2ccccc2Cl)o1`, the “hERG current change (%, negative = inhibition) at 1uM” value is 11.8%.
Take `O=C(CN1CCN(S(=O)(=O)c2ccccc2)CC1)N1CCCCC1`: the “hERG current change (%, negative = inhibition) at 1uM” value turned out to be 8.64%.
For the compound `CC(C)CN(C(=O)CN1CCN(S(=O)(=O)c2ccc3ccccc3c2)CC1)c1c(N)n(CC(C)C)c(=O)[nH]c1=O`, the “hERG current change (%, negative = inhibition) at 1uM” value came out at 10%.
Next, `COc1ccc(-c2cc(N)n(CCC#N)n2)c(OC)c1`: 9.09%.
For the compound `CSc1cccc(NC(=S)N(Cc2ccc(C)cc2)Cc2ccccn2)c1`, the “hERG current change (%, negative = inhibition) at 1uM” value is listed as 4.46%.
Take `O=C(Nc1cccnc1)c1ccc(S(=O)(=O)c2ccc(Cl)cc2)cc1`: the “hERG current change (%, negative = inhibition) at 1uM” value was -1.05%.
On to `O=C(c1ccc(Cl)cc1)C1CCCN(Cc2ccon2)C1` (stereo not drawn), for which the “hERG current change (%, negative = inhibition) at 1uM” value is given as -7.89%.
`O=C(Cc1c(F)cccc1Cl)Nc1ccc(-n2cnnn2)cc1`: the “hERG current change (%, negative = inhibition) at 1uM” value is 11.7%.
In the case of `COc1ccc(CN2CCN(Cc3ccc(C(F)(F)F)cc3)CC2)c(OC)c1.O=C(O)C(=O)O`, the “hERG current change (%, negative = inhibition) at 1uM” value was -66.6%.
For the compound `CCC(=O)Nc1ccc(C(=O)NNC(=O)c2cc([N+](=O)[O-])cc([N+](=O)[O-])c2)cc1`, the “hERG current change (%, negative = inhibition) at 1uM” value is 15.3%.
Take `COc1ccc(OC)c(C2=NOC(C(=O)Nc3cccnc3)C2)c1` (stereo not drawn): the “hERG current change (%, negative = inhibition) at 1uM” value was -3.02%.
Take `O=C(NC(=S)NCCOCc1ccc(Cl)cc1)c1cccnc1`: the “hERG current change (%, negative = inhibition) at 1uM” value was found to be 7.31%.
For the compound `COc1cccc2c(Cl)c(CCCl)c(C)nc12`, the “hERG current change (%, negative = inhibition) at 1uM” value came out at 7.62%.
As for `CC(NC(=O)Cn1cccc1)c1ccccc1` (stereo not drawn), the “hERG current change (%, negative = inhibition) at 1uM” value worked out at 20.4%.
Consider `O=c1c2cccc3c2c(nn1-c1ccccc1)-c1ccccc1-3`, for which the “hERG current change (%, negative = inhibition) at 1uM” value was determined as 16.2%.
As for `C/C(=N/NC(N)=S)c1ccc(Br)s1`, the “hERG current change (%, negative = inhibition) at 1uM” value was determined as 14.7%.
In the case of `O=C(CSc1ccc2nnc(-c3ccc(F)cc3)n2n1)NCc1ccco1` it was 6.46%; in that of `Cc1ccc(OCC(=O)NCCCNC(=O)c2ccncc2)cc1C`, 3.18%; in that of `Nc1cccc(C(=O)NCCNC(=O)c2cccc(N)c2)c1`, -0.917%.
In the case of `CC1(C)CC(=O)c2c(S(C)(=O)=O)sc(Br)c2C1`, the “hERG current change (%, negative = inhibition) at 1uM” value is 4.83%.

These data come from article PMC4336329 (PLoS ONE, 2015).
